# From PMC10726135
# The other results are listed elsewhere or left out. At the low end of the ranking the order means little. Measured with an extract: partners may take part in the binding.
# Target: T1, HNF4alpha2 (COS-7 nuclear extract) (UniProt P41235)
# T1 sequence: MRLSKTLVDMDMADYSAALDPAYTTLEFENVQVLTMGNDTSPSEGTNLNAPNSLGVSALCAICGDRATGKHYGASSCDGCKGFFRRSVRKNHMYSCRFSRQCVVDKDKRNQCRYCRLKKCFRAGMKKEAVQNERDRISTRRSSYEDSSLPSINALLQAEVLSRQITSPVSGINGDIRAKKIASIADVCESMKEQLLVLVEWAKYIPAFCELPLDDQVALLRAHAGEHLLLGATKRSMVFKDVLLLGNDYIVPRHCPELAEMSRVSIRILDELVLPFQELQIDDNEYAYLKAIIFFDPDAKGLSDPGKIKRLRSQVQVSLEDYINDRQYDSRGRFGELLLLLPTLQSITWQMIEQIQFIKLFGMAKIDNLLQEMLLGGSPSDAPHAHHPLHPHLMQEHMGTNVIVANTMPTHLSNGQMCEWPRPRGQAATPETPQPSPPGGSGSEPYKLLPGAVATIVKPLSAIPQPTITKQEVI
# Test: protein-binding microarray
# Settings: COS-7 nuclear extract on double-stranded Agilent 4x180k PBM; binding buffer, salt, pH and temperature not given; high values mean tight binding; double strand, one strand shown; sequences stand for … in …GCCTAGGGAGATTAGAGTATCGGTCGA
row,Sequence,binding signal (log2 normalized intensity)
1,TGTGACAGAAGTCATGTCTCATTGCCCCTT,4.41
2,GAGTGACCTCTGGTCATTCAATGTTTGGGA,2.12
3,TTGTCCTCTGATTCTCCAGTCCGAAGGTCC,2.74
4,AGCTGCTTCAGGAGCCCCCTGGGGGAGGTT,0.491
5,AGTCCAAATTCCTAGCCCTCTTTCAAAGAC,-1.13
6,GAAGGCCTCTGATGATTCTAAAGGCACAAT,-0.98
7,AAAGGCACTTTGATAACTGGGTAAATGTAC,1.4
8,CGAGCACGTCGAGCAGGCCCCGTCCCCGCC,4.19
9,GAGACCTCTGCAGGAGGACTGGATCAATGG,-0.859
10,TGCACATGCCCCTCCCAGGGACACATGCCC,3.79
11,TCTTGAAATCCCAAGCAGTGATATTCTCTC,-1.09
12,CTGAGCCCGCTCCACTCCGGGCGATCCGGG,-1.19
13,AGAATGGAATTCCAGAGAGACTCACTGCAA,-1.15
14,ACCTTCTCCCACTTCCCTGCCTTTGTATAA,2.1
15,AGAACAAACAAATTTAGCAAGACTGCAAAA,-1.09
16,GGGGCTTTTGTTTAGGAAGAGATCAAAGTT,1.35
17,AAGCAGTAGACTAAAACCCATATCTGACTG,-1.06
18,CTTCAGCCAGATAGCCACTGGGGTCATGGA,2.43
19,AGGCTGACCCGTGAATCCTTAAGATTCCTG,-1.1
20,CTCTGTTGCATGGTTGACATACTTCTGAGT,1.47
21,GCATGAACCTTTGCTCCCTGGGAACCCCTC,2.72
22,TCCATTTCCCACATTGCTCTCCCATAAGAA,0.624
23,TGGAAATTCAGAACTTTGACCACCTACTGT,1.79
24,TACAATTCCAGCAAGGATGGGGGCAAAGGT,2.91
25,CTGGCCTCGGGGAGCTGTGGGCCTCACACC,-1.13

row,Sequence,binding signal (log2 normalized intensity)
1,GAATGAGTTTCCAGAATTGCTTTACGAAGT,-1.08
2,CTGAAAGCTTCAAAGGACAGGCTGACTATC,-1.13
3,AAACGGGTTTTACCCTGGGAATGGAGAGAG,-0.957
4,GAAGATAAGCAGATCTTTAGAGACAGAAAA,-1.16
5,CCTTTGGTCTAAACCTACTTAGATCAAGAT,-0.394
6,CTGTAGTAAGGGAGTGTGGGGTGGTGTCAG,1.57
7,ACCAGAGCCGTCTGGTAAATTTCTAACACT,-1.16
8,GTTGCAGTGAGCTAAGATTGGACTCTGCAC,6.06
9,TTTGGACTTTGGACTTGGGACTTTCGAGTT,7.8
10,TAGTAAAGCTCATGAAGCTTCCCCTTTAAC,-1.05
11,GGGCACCTCTGAAAGCACTTGTAGGCCTGT,-1.11
12,GGTTAAAAGTTCTGCTGAGTATCCAAAGGT,1.45
13,CAGAAAGTTAGGTTCTGGCACCTGAAGCTG,-1.01
14,AAAGAGGCTACCAGACCTTGGCCTGCTCCT,-1.21
15,ACTGCTCCAGTGGACATTGGCCCTTTGACC,5.99
16,TTGGTCTCATGGGCCTAAACATTCCCCTTT,2.13
17,TAATCTGATCGCCCTCCCCCAGAGAGAACA,4.81
18,GTGCAGCTGCTGAAACATTCAACTGACACT,-1.14
19,AGTCCACAGTCCAGTGACTATCTGCTACTT,-1.1
20,GGCTGGAGCAGGCCATGTGCAGAGGAGGGG,-1.19
21,AAAGCAGTGAGTGAAACATCCCACTCAAAG,-1.04
22,GGGTTATGGAGAGTGGAAGACTGCACCAAA,-1.13
23,ACACAAACTATGACCTTTGAAACTTACATT,5.64
24,GTCCAGAGTTTAAATGACCTCTGCCCTTCC,6.56
25,TAAGAAATGAATGTCACTTTCTGACTGGCC,-0.263

row,Sequence,binding signal (log2 normalized intensity)
1,ATCTACCATTAGTCTCCAATATATTTGCCT,-0.905
2,TACAGGCAAGAGAATCAGAGAGATACTGAA,-0.975
3,GGGGGCTGTTTATGGGTTAACAGAATGAAC,1.11
4,TCAGATTGCCTAAAGGGGATTTTCTCAGCT,-1.25
5,GAAACATTTTACAACCTACTCTTTCTCTGA,-1.16
6,TGTTCCACCCAGGGTGGCAGGCTCTGCAAA,-1.08
7,GGGGCAAAGTTTATGTGTGAGCCTATAATT,1.17
8,GAAGCAAGTGTTTAACTCTTTATCTTTCTC,0.752
9,ACCATAAGAGGCTCTAGATCTCAAAGTCCA,3.9
10,CTGTGCTTTCTAAAGTATGTGGTGGGTGTG,2.5
11,GCCACATTCCCCGACTCCTGGGTGTGAGAT,0.517
12,TCTGTCCCTGCACCCTACCCCCATACTTTA,3.83
13,GAGACACCCCTGCAGAAGCGGGAGAGGCCC,-1.2
14,AGAGCTCCAGAAGAAAGGGGAGATAATGCC,-1.02
15,ATCTGACCAAGTGAACTGTGACCTGATGAC,2.97
16,CAAACGAGACTTTGGACTTTGGACTTGGGA,10.5
17,ATTCCAAGAAGAGCCAATAGTACACATCAA,-0.572
18,CCTCCCCATTGTAGATTCAATAATACAAGA,1.14
19,AGTTTGTCTGATCTTCCTGAGGAGAGCAAA,-1.13
20,TTGTGTAACATCTAAGATTGGCCCTGATAA,0.233
21,CCAGAGAAATAGTGAGACAGACATGCGACA,-1.12
22,TTGTTTGTGTTTCCCTCCCTGGTATGTACT,2.72
23,GAACAAGTATCCTGGTAGTGCGACAAGAAT,-1.22
24,ATTCTACTGCCATTGATAATTCAGTTTCAT,0.638
25,GACCTGGCATATCTCTGTCCCTGATACCAT,0.149

row,Sequence,binding signal (log2 normalized intensity)
1,TTCTGATCTTTGACCTCTCCAGGGTCCTTG,4.73
2,CTTCCCCCATCCCCAACAAAGCTCTGCATC,4.73
3,AATGCTATGCTTTTATTTAACTTCTGGGGG,-0.748
4,CATGGGTCTCTTCCTCAGTTTGTTCTTGGG,1.18
5,CAAGTAAATTCCGGGGCTGGAATTTGAACC,5.13
6,CTCCCCTCCTCCAGATGGGCTCATGTAACA,2.61
7,TTGCCACTAGGGGTCACTGTCACATGTCCA,2.21
8,GAATGGACTCTGAGACCTGTGATGGTCACT,1.43
9,AGTAGCAGTTCAAAAGTTCAAAGATATGAT,1.04
10,TCAGGCCATTTCACCTTTGCCCTGTCAGTC,5.88
11,CACACCTCCAGCCACCCTGAAGGCTGAGCC,-1.08
12,AACAAATAAAGTGGATGGAGCAATTCAACA,-0.928
13,GGCCTTATAGGGCATACCCTTCCTGCTGAC,-1.08
14,GCCAAGGACCGCCAAGGAAGCGATGGGCTG,-1.07
15,GAGTCCAGTGGGGGAGAGGGAGAATAAGGG,-1.11
16,CTTGTTTGTGTAACTGTGGGTTCTAGGTAA,1.75
17,TCTGCTTTCAAAGCTCCAGTTCCAGGGATG,-0.556
18,GCGGTAAAGAAGCCAGCCAAATCCCACCAA,2.06
19,CCGCAGTGGGAGAGCAAGGGTCAAGGGTCA,6.65
20,GAACCTGTGTTTCCTGGATTGTGAAACACA,0.253
21,CAATCAGCAGCAAAGTCCTGGAAGAAACCC,-1.15
22,ACTAATGCATTCCCAGCAAGTGAAGAGGAA,-1.15
23,TGTGTTGGCACTTTGGACTTGAGAAGACAT,3.23
24,TATCTAAAAGCTTATCTGCACAATGAAACT,-1.15
25,GCTGTCAGCCACCAAAGCAGCTAGCAAATA,-1.2

row,Sequence,binding signal (log2 normalized intensity)
1,CATTGTGTTAAAGGAATTCAGGACTTGGTA,1.07
2,GTTATCTAATGGAGAGGATGGGGACAAAGG,1.47
3,AAGACAGGGGCTATTTCTGACCTTTGCACC,9.65
4,TAGTAGCCCTTTGTATCTTTTAAGATACAC,0.084
5,AGGGGTCACCTCGCTCCCCTCCTGTCAGTT,1.51
6,TCAGCTGGGCTCGGCGCTCCGCTTACTCGG,-1.06
7,TGAAATCTAATCTCTGTAACATTCCTAGAT,-1.15
8,AGAACAGTCTGTGACTTGATCTTTGACTGG,3.37
9,GCATTTCACAATAGGGTTCAAACTCCTATG,2.05
10,TTTCAAGGTGACCCCACGGAGCTGCCTCAC,2.23
11,CTGAGAGAGCAGGGCCCGAGGCCTTGAGCA,-1.14
12,ATCACACTACTGGCTTTTCTGGTTCTCCAG,-0.917
13,TAATCTGACTTGACAGGTTTCTTGCTGAAG,-0.717
14,TCTAATCTCTGTAACATTCCTAGATATCAG,-1.29
15,TAAGCAATCCCTTAGGCTTTTGCACTTTAC,2.96
16,TTAAGTGGTTCACAAACATTCCAGTGGTCC,1.21
17,TGTGTGTGTGTCTGTAGTTTTCGTTGTCTA,2.41
18,GGCCGGGGTGGTGGTTACCGGCAGAGGCTG,-0.105
19,TTCAGGCAGGAATGCTGAACAATTGATTTA,-1.04
20,ACACTGACATCATCGCAGAAAGCTCTTTGC,-0.994
21,TAGAATGACCCCCTGGGCTCCAATCAGGAG,2.76
22,ATGAAAGTATCCAGCTCCTCTTCACACCAT,-1.13
23,TGGGTGTCAGGGTTCTCAGACCACCAGCTG,-1.2
24,TTTCATTGGAAAGGCAGAGGAAAGCCCTAG,-1.05
25,ACAAGAGGCAAAGGCCACAGCTCAGATCAC,-1.15

row,Sequence,binding signal (log2 normalized intensity)
1,AGGGGTAGAAGCTGAGCAGCAATCAGCTCC,-1.06
2,AGGCAGGGACTGAGGAATCTGGCTGTGCTG,-1.04
3,CCCAGGCAATCTTCCAGTCCACAGTCCAGT,0.72
4,TGTTGCGTAATACAAAGGCAGCCATTGACG,-0.702
5,TCGCTCCGCCGCTAGGTGGCGGGCTGGCTC,-1.16
6,ACACATAAACCCTGACCCTCAAGGGTCTCC,0.628
7,TAAACAGCTGACAATAAATTCCAGGCTGCC,-1.16
8,CCTTTTGAAGAAACCAACCCTGCCAAAGGT,0.785
9,AAGTACAGAGATGGCACAGAGGAGGGACGA,-1.14
10,CTGGGTATTTCAAGAATGCAAAGCCCTGGC,-1.05
11,TTACTTTTGTACACACAGCACTGCAAACAG,-1.24
12,ATCAATCAATTTACCTCTGCTCCCCCTGCC,4.1
13,GGCAAAGGGCATGGGCAGCTTTGAAGACTC,-1.23
14,GGGCACCGCCTCCACACCCCAGCCTGCCCT,3.1
15,AACTGAGGAGGACATACTCCTACCACCAAA,-1.22
16,GTGTCCCTCTTATACTCTCTCTCTCTCGTT,0.839
17,GATGGAGATGGCCTGGAGGTACCTAGGGGA,-1.26
18,AAAGGACATTGTCCATCACCTGGCTCTGAA,-1.01
19,CCTGTCAGTTTATTTACTGTCCTCAAACTG,1.46
20,GCCTGGGGTAAAACCAAACTGCAGCTGCTG,-1.05
